Test results from patent US11000038B2, “Pyridone compounds and agricultural and horticultural fungicides containing the same as active ingredients” (priority 2017, dated 2021).

Tests used:
[1] = test system: gray mold fungi (Botrytis cinerea); experiment: Test Example B: tomato gray mold, spray treatment of tomato plants; conditions: tomato gray mold
[2] = test system: wheat brown rust fungi (Puccinia recondita); experiment: Test Example E: wheat brown rust, spray treatment of wheat plants; assay type: in vivo; conditions: wheat brown rust
[3] = test system: grape downy mildew fungus (Plasmopara viticola); experiment: Test Example G: grape downy mildew, spray treatment of grape plants; conditions: grape downy mildew, 7 to 10 days after inoculation
[4] = test system: barley powdery mildew fungi (Blumeria graminis f. sp. hordei); experiment: Test Example D: barley powdery mildew, spray treatment of barley plants; conditions: barley powdery mildew
[5] = spray treatment of tomato plants
[6] = spray treatment of wheat plants
[7] = spray treatment of barley plants

Row | SMILES | Test B control value [1, 5] | Test E control value [2, 6] | Test G control value ([3]; 250 ppm spray (2.5 ml/pot)) | Test D control value [4, 7] | Test B control value ([1]; spray treatment) | Test E control value ([2]; spray treatment) | Test G control value ([3]; 250 ppm spray) | Test D control value ([4]; spray treatment)
1 | CSCn1cc(C)c(=O)c(C)c1-c1c(F)cc(F)cc1F [Compound 269] | H (H shows the control value of more than 50%) | H (H shows the control value of more than 50%) | L (L shows the control value of 50% or less) | L (L shows the control value of 50% or less) | – | – | – | –
2 | Cc1cccc(F)c1-n1cc(Br)c(=O)c(Cl)c1-c1c(F)cc(F)cc1F [Compound 289] | L (L shows the control value of 50% or less) | H (H shows the control value of more than 50%) | L (L shows the control value of 50% or less) | L (L shows the control value of 50% or less) | – | – | – | –
3 | Cc1ccccc1-n1cc(Br)c(=O)c(C)c1-c1ccccc1 [Compound 357] | H (H shows the control value of more than 50%) | H (H shows the control value of more than 50%) | H (H shows the control value of more than 50%) | L (L shows the control value of 50% or less) | – | – | – | –
4 | Cc1cn(-c2ccccc2)c(-c2c(F)cccc2F)c(C)c1=O [Compound 360] | H (H shows the control value of more than 50%) | H (H shows the control value of more than 50%) | H (H shows the control value of more than 50%) | L (L shows the control value of 50% or less) | – | – | – | –
5 | CCCc1c(-c2c(F)cc(F)cc2F)n(-c2ccccc2C)cc(Br)c1=O [Compound 376] | – | – | – | – | H (H shows the control value of more than 50%) | L (L shows the control value of 50% or less) | L (L shows the control value of 50% or less) | H (H shows the control value of more than 50%)
6 | COc1ccc(C)c(-n2cc(C)c(=O)c(C)c2-c2c(F)cccc2F)c1 [Compound 383] | – | – | – | – | H (H shows the control value of more than 50%) | H (H shows the control value of more than 50%) | L (L shows the control value of 50% or less) | L (L shows the control value of 50% or less)
7 | COc1cc(-n2cc(Br)c(=O)c(Cl)c2-c2ccccc2)c(C)cc1Br [Compound 414] | – | – | – | – | L (L shows the control value of 50% or less) | L (L shows the control value of 50% or less) | L (L shows the control value of 50% or less) | L (L shows the control value of 50% or less)
8 | COCOc1ccc(C)c(-n2cc(Br)c(=O)c(Cl)c2-c2c(F)cccc2F)c1 [Compound 427] | – | – | – | – | H (H shows the control value of more than 50%) | H (H shows the control value of more than 50%) | H (H shows the control value of more than 50%) | H (H shows the control value of more than 50%)
9 | Cc1ccc(OCC#N)cc1-n1cc(Br)c(=O)c(Cl)c1-c1c(F)cccc1F [Compound 428] | – | – | – | – | H (H shows the control value of more than 50%) | H (H shows the control value of more than 50%) | H (H shows the control value of more than 50%) | H (H shows the control value of more than 50%)
